Reference: the supplement of paper PMC3334620
In all, about 33,000 sequences were measured (“E-score (-0.5 to 0.5)”: median about -0.054, highest 2% from about 0.39 on). This is one part of the list.

target: Ylr278c (UniProt Q05854); experiment: PBM E-score (8-mer binding enrichment) (E-score (-0.5 to 0.5)); higher = stronger / more preferred TF binding; most listed sequences are background and not binding sites; conditions: protein concentration: 200 nM; construct: GST-DNA-binding domain
Method: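 Universal 'all 10-mer' protein binding microarrays (Agilent AMADID 015681) probed with GST-tagged S. cerevisiae TFs (full-length or DBD) made by in vitro transcription/translation (PURExpress), about 100-200 nM. Bound TF was detected with fluorescent anti-GST. Each ungapped 8-mer (which stands for itself and its reverse complement) is scored by the PBM enrichment score (E-score), a modified Wilcoxon-Mann-Whitney statistic from -0.5 to +0.5, computed with the Universal PBM Analysis Suite. Scale: above 0.35 generally sequence-specific binding.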

Going from AGGGCTTC to ATCAAGAT, the “PBM E-score” value rises from -0.163 to 0.0116.

Compared with GGCCGATA, ACCTATCG is lower in “PBM E-score” value: 0.3 for the first, 0.0878 for the second.

First: TTCACGAA
Second: ATGGCTTA
The “PBM E-score” value of the first is lower: -0.187 for the first, -0.154 for the second.

Compared with TACTTTAA, ACAAGGGG is higher in “PBM E-score” value: -0.122 for the first, -0.102 for the second.

First: CAGGCCCC
Second: CCAATATA
The “PBM E-score” value of the first is higher: -0.186 for the first, -0.237 for the second.

Compared with CATTCCGG, GCCATTAC is lower in “PBM E-score” value: 0.384 for the first, -0.0435 for the second.

First: GCTATAGC
Second: AAGCTAGG
The “PBM E-score” value of the first is lower: -0.136 for the first, 0.0895 for the second.

First: CCCCAGTC
Second: CAGCAATA
The “PBM E-score” value of the first is higher: -0.0412 for the first, -0.141 for the second.

First: GCTTGTTA
Second: GCCCTTTA
The “PBM E-score” value of the first is higher: 0.0864 for the first, -0.148 for the second.

Compared with AATAAGCT, ACCACCAT is higher in “PBM E-score” value: -0.0304 for the first, 0.0454 for the second.

Compared with GATTTAAA, CGTCTTGC is lower in “PBM E-score” value: 0.0215 for the first, -0.00892 for the second.

First: GCCAGCAC
Second: TCCGGAAA
The “PBM E-score” value of the first is lower: -0.0273 for the first, 0.456 for the second.

First: CGCACCCG
Second: TCGACGAA
The “PBM E-score” value of the first is higher: 0.23 for the first, -0.0869 for the second.

Going from GTTAGGAA to ATGCCCGC, the “PBM E-score” value rises from 0.0503 to 0.275.

Going from CACATGAG to CAACTACC, the “PBM E-score” value rises from -0.342 to 0.0162.

First: CGAGCGCA
Second: TAGACGCA
The “PBM E-score” value of the first is higher: 0.0815 for the first, -0.12 for the second.

First: ACTTAAAC
Second: AGCGAGGA
The “PBM E-score” value of the first is lower: -0.129 for the first, -0.0204 for the second.

Compared with CATGAAAG, CATACGGA is higher in “PBM E-score” value: -0.0739 for the first, 0.37 for the second.

Compared with CCGGGCGC, AGGGCAAA is lower in “PBM E-score” value: 0.264 for the first, 0.0461 for the second.

Going from GCGCAAAC to GCTGCAAC, the “PBM E-score” value falls from 0.0752 to 0.00557.

Compared with ATGTGTTC, CCGGGCGA is higher in “PBM E-score” value: 0.00368 for the first, 0.287 for the second.

First: ATGACACG
Second: AAACCGAG
The “PBM E-score” value of the first is lower: 0.0232 for the first, 0.0949 for the second.

Compared with AGCGTCGC, AGGACGGA is higher in “PBM E-score” value: 0.037 for the first, 0.339 for the second.

Going from GCATAATA to AAGCAGGG, the “PBM E-score” value falls from -0.0357 to -0.0414.

First: ACAATTTG
Second: GGTGGGGA
The “PBM E-score” value of the first is lower: -0.21 for the first, 0.0745 for the second.

First: AAACTGTA
Second: AGTGTAAT
The “PBM E-score” value of the first is higher: -0.074 for the first, -0.104 for the second.

Going from CACTAAAC to AAACGGCG, the “PBM E-score” value rises from -0.0554 to 0.165.

First: CTGTCCAC
Second: AAATATAA
The “PBM E-score” value of the first is lower: -0.0489 for the first, 0.144 for the second.

Compared with CCACGAGG, ACTACAGC is higher in “PBM E-score” value: -0.153 for the first, -0.0825 for the second.

Compared with AACACGCA, CGTCTCCC is higher in “PBM E-score” value: -0.0979 for the first, 0.225 for the second.

Compared with AGACTTGA, GCATGCGC is higher in “PBM E-score” value: -0.286 for the first, 0.0729 for the second.

Compared with AGTACAAT, TGTTGGAA is lower in “PBM E-score” value: -0.0868 for the first, -0.0973 for the second.

Going from CATGCCCC to GGCTCAAC, the “PBM E-score” value falls from 0.109 to -0.271.

Compared with CCGAAATC, CGTCTTAC is lower in “PBM E-score” value: 0.385 for the first, -0.236 for the second.

Compared with CCCTTACG, TGTGCAAA is lower in “PBM E-score” value: -0.192 for the first, -0.319 for the second.

First: CATATCTA
Second: AGCGGGTA
The “PBM E-score” value of the first is higher: 0.053 for the first, -0.0799 for the second.

Going from GCAGAGGC to AAATAACG, the “PBM E-score” value rises from -0.103 to -0.0174.

Going from ATCGCCTG to CGGGCGAG, the “PBM E-score” value rises from -0.104 to 0.229.

First: AGACGCAA
Second: GGGCAGAA
The “PBM E-score” value of the first is higher: 0.0449 for the first, 0.008 for the second.

Compared with CACTTTAG, ATTGAGAC is higher in “PBM E-score” value: -0.125 for the first, -0.0756 for the second.

Going from GGATGTAA to GGATTCTA, the “PBM E-score” value rises from 0.0423 to 0.0814.

Compared with CTCGTAGC, ATCTGTTC is higher in “PBM E-score” value: -0.086 for the first, 0.0459 for the second.

Compared with AGCAGATC, ATATTTGC is higher in “PBM E-score” value: -0.151 for the first, 0.0567 for the second.

Going from ATCGCAGG to GAGCGTGC, the “PBM E-score” value rises from -0.165 to 0.159.

Going from CCGACCAC to CTGAATTA, the “PBM E-score” value falls from 0.251 to -0.0803.

Compared with CTGCTAGC, AAATTACT is higher in “PBM E-score” value: -0.211 for the first, -0.0481 for the second.

Going from AGCGCAAT to ACTAGGAC, the “PBM E-score” value falls from -0.0236 to -0.0916.

First: AACTCTGA
Second: AGATCTTG
The “PBM E-score” value of the first is higher: 0.0684 for the first, -0.225 for the second.

Going from AACCAGAA to GAAAGTGA, the “PBM E-score” value rises from -0.144 to -0.0622.

Going from CTGCACTA to AGGCATAA, the “PBM E-score” value falls from 0.0495 to -0.15.

Compared with CAATATAG, CAGAAAGC is higher in “PBM E-score” value: -0.174 for the first, -0.0664 for the second.

Going from AAGTCCGT to GGTTTAAA, the “PBM E-score” value falls from 0.433 to -0.0177.

Going from ACGTCGAA to GTGCACAA, the “PBM E-score” value rises from -0.123 to -0.0502.

Going from ATTGTCTG to ATGGTCGG, the “PBM E-score” value rises from -0.0613 to 0.196.

Going from AGTACCGC to CGTTATGC, the “PBM E-score” value falls from 0.0814 to -0.186.

First: CTTACTGA
Second: ATCTACAC
The “PBM E-score” value of the first is lower: -0.246 for the first, -0.136 for the second.

Going from CCCGATAG to ACTTTGTA, the “PBM E-score” value falls from 0.19 to -0.105.

Going from CGGCCTAC to CAATTCCA, the “PBM E-score” value falls from 0.177 to -0.0617.

Compared with CCCCTACC, ACAAAAAG is higher in “PBM E-score” value: -0.175 for the first, 0.0287 for the second.

Compared with GAAGTAGA, ACAAGCAT is lower in “PBM E-score” value: -0.0571 for the first, -0.0824 for the second.

First: ATGCTGAC
Second: CGATGCTC
The “PBM E-score” value of the first is lower: -0.351 for the first, 0.234 for the second.

Going from TCACTGCA to TAAACGGA, the “PBM E-score” value rises from -0.208 to 0.297.

Compared with AGCCACAG, CGATACGA is higher in “PBM E-score” value: -0.255 for the first, -0.0979 for the second.

Going from ACTTTTAT to AATAAGAT, the “PBM E-score” value falls from -0.0703 to -0.103.

First: TGGGTACA
Second: TAGCGTGA
The “PBM E-score” value of the first is higher: -0.0846 for the first, -0.223 for the second.

First: ATCATTTG
Second: GGGTAATA
The “PBM E-score” value of the first is lower: -0.0126 for the first, 0.0281 for the second.

First: CATTGAAG
Second: TTAGCGAA
The “PBM E-score” value of the first is lower: -0.185 for the first, 0.0152 for the second.

First: CGGCTCGC
Second: CAGCAAAC
The “PBM E-score” value of the first is higher: 0.189 for the first, -0.026 for the second.

Going from CCCTACTA to GATATGTA, the “PBM E-score” value rises from -0.0452 to 0.0233.

Compared with CTCCATTA, AGGCAGCA is lower in “PBM E-score” value: -0.0529 for the first, -0.0855 for the second.

First: AAGGTGAT
Second: CGTGCCAG
The “PBM E-score” value of the first is lower: -0.169 for the first, -0.119 for the second.

First: AATATAAT
Second: CCGACGAC
The “PBM E-score” value of the first is lower: -0.0657 for the first, 0.235 for the second.

Compared with ACCACAAA, CCTTAGAC is lower in “PBM E-score” value: -0.0105 for the first, -0.125 for the second.

Going from ATCGTCCC to AACCTCGC, the “PBM E-score” value rises from -0.0888 to -0.0783.

First: CCCTCCAG
Second: GACCGAGA
The “PBM E-score” value of the first is lower: -0.0892 for the first, 0.172 for the second.

First: AAGCGTCG
Second: GTTGCCGA
The “PBM E-score” value of the first is lower: -0.00882 for the first, 0.252 for the second.

Going from CCTACGCA to CGTCTTCC, the “PBM E-score” value rises from -0.183 to 0.00507.

Going from GCCATCAA to TAACTTGA, the “PBM E-score” value rises from -0.32 to -0.237.

First: AGCCTACT
Second: AGTCGCTC
The “PBM E-score” value of the first is lower: -0.171 for the first, -0.139 for the second.

First: CAGCATTC
Second: ATCTGAAC
The “PBM E-score” value of the first is higher: -0.00157 for the first, -0.118 for the second.

Compared with ACTTCTGG, CGATGCTA is higher in “PBM E-score” value: -0.257 for the first, 0.0429 for the second.

Going from CATGACAC to CCAACATA, the “PBM E-score” value rises from -0.145 to 0.0416.

Compared with CAAGTCTG, CCCTAAGC is higher in “PBM E-score” value: -0.336 for the first, -0.173 for the second.

Going from CGTGCGCA to CAGGGTGA, the “PBM E-score” value falls from -0.0163 to -0.195.

Compared with CGTCTACA, AACGGATG is higher in “PBM E-score” value: -0.104 for the first, 0.132 for the second.

Compared with GTTCGGTA, TGGCCGAA is lower in “PBM E-score” value: 0.189 for the first, 0.144 for the second.
